Experimental data from the supplement of paper PMC3334620.
The full ranking holds about 33,000 sequences; the median of “E-score (-0.5 to 0.5)” is about -0.053, and the highest 2% start at about 0.37. The list shows a part of the results.

molecular target: Hap1 (UniProt P0CE41); assay: PBM E-score (8-mer binding enrichment) (E-score (-0.5 to 0.5)); higher = stronger / more preferred TF binding; most listed sequences are background and not binding sites; details: protein concentration: 200 nM; construct: GST-DNA-binding domain
Description: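 Universal 'all 10-mer' protein binding microarrays (Agilent AMADID 015681) probed with GST-tagged S. cerevisiae TFs (full-length or DBD) made by in vitro transcription/translation (PURExpress), about 100-200 nM. Bound TF was detected with fluorescent anti-GST. Each ungapped 8-mer (which stands for itself and its reverse complement) is scored by the PBM enrichment score (E-score), a modified Wilcoxon-Mann-Whitney statistic from -0.5 to +0.5, computed with the Universal PBM Analysis Suite. Scale: above 0.35 generally sequence-specific binding.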

Chain of UniProt P0CE41 (P0CE41 whole entry, the tested form may be a part): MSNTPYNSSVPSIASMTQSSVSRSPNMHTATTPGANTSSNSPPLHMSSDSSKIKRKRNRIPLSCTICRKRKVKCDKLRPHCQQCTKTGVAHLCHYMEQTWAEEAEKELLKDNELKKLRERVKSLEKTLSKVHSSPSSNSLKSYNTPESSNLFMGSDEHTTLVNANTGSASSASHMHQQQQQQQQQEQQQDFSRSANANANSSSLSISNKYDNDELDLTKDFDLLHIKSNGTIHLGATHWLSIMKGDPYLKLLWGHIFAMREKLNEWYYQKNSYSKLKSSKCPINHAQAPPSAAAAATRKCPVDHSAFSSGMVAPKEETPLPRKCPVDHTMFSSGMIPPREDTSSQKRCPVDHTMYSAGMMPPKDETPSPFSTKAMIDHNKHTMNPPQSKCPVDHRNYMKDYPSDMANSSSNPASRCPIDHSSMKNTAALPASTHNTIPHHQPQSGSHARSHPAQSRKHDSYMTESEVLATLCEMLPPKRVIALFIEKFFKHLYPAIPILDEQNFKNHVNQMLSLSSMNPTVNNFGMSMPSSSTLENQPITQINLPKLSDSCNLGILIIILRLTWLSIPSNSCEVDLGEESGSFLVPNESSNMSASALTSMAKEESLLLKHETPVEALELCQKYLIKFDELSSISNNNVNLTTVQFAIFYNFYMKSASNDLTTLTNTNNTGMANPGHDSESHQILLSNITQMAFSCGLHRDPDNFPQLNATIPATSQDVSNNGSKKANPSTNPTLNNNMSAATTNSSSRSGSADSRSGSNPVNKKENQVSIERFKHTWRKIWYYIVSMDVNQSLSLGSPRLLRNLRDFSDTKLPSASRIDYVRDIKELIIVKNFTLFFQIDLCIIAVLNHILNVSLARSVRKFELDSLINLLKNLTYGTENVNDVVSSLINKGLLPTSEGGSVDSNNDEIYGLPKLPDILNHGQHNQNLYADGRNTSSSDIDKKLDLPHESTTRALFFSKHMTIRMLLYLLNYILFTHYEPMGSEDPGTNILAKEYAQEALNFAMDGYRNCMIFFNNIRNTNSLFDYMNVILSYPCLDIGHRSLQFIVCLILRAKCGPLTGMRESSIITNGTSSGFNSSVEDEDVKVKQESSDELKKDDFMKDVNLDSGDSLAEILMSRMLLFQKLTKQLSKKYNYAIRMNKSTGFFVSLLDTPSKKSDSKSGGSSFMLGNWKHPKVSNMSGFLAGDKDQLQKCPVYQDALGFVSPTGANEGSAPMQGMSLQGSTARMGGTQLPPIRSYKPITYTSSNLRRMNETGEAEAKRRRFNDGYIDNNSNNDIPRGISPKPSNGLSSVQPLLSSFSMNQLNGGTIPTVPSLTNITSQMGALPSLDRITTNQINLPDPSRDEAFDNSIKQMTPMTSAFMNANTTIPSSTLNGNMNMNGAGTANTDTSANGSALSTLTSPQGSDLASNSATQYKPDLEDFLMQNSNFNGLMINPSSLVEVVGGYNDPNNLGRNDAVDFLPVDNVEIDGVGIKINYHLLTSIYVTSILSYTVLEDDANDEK

Point of comparison: AACCGAGT, “PBM E-score” value 0.157. Against it:
- CGTAGCTC — lower, 0.109
- CATTTAAG — lower, -0.223
- TCGATTCA — lower, -0.0308
- CCTCATCA — lower, -0.169
- GTTACAGA — lower, -0.214
- ATCTCTCG — lower, 0.142
- CCCACGCC — lower, -0.103
- ATACGAAT — lower, -0.192
- GTGACTTA — lower, -0.171
- ACGCCTGA — lower, -0.116
- CATTTGGC — lower, -0.132
- TATGCGCA — lower, -0.0822
- AAGGTAAG — lower, -0.173
- ATGACTTC — lower, -0.0257
- CGCAAGCC — lower, 0.0291
- ACTTTCCT — lower, -0.131
- GACGGCAA — lower, 0.0858
- CGTCGAGC — lower, -0.122
- TAACCCAA — lower, -0.0641
- TCATGGCA — lower, -0.0941
- CCCAATTC — lower, -0.135
- AGTAAGGA — lower, -0.246
- GGCAGGGA — lower, -0.172
- ACGCGACC — lower, -0.094
- CAATCGCG — lower, 0.115
- AAGGTTAT — lower, 0.0892
- CAAAGCTG — lower, -0.0916
- CCTGCGTA — lower, -0.124
- AACTGTTA — lower, 0.0162
- AGTAGTAC — lower, 0.105
- CAATAAGC — lower, 0.0423
- ATATGAGC — lower, -0.0439
- GGCATACC — lower, 0.107
- AGTGCGTG — lower, -0.165
- GACCGAAC — higher, 0.347
- ATGAGACA — lower, -0.0994
- GCATCGCC — lower, 0.0583
- GGCAAAGA — lower, 0.0812
- ACACGTCG — lower, 0.00541
- GAGTGGCC — lower, 0.144
- AATGGTTC — lower, -0.00195
- AGCAGTCC — lower, 0.0132
- CGCGCTGA — lower, -0.0292
- GACATTCA — lower, 0.113
- ATAGATAC — lower, -0.117
- CCGTATGA — lower, 0.115
- GTACACGA — lower, -0.116
- TTACTGAA — lower, -0.162
- TCTGCTCA — lower, -0.356
- CAAAAGGG — lower, -0.161
- CGCCTTAC — lower, -0.112
- GAAAAGAC — lower, 0.0224
- CTAAGACA — lower, -0.168
- GACAAATC — lower, 0.077
- GAAAAAAA — lower, 0.025
- CCGGTTTC — higher, 0.317
- AGGCCCTG — lower, -0.219
- CGGTTTTA — higher, 0.433
- ACCATGTC — lower, -0.0848
- CATTCCCC — higher, 0.185
- GCGTGACA — lower, -0.104
- CTGCTATA — lower, 0.0322
- CCTAAGCA — lower, -0.192
- GCGCTGCC — lower, -0.0134
- GAAATGCA — lower, 0.125
- CAATCGAG — lower, -0.32
- GGTAATTA — higher, 0.286
- GACATGAC — lower, -0.146
- CCGAATTC — higher, 0.342
- AAGCTCTA — lower, -0.14
- ATCACGGG — lower, -0.00611
- CGACGGCA — lower, 0.0843
- GGAAGTAA — higher, 0.299
- CGCTGGAA — lower, 0.0856
- GATTTACA — lower, 0.044
- AGTTTTTG — lower, -0.0198
- GCACCGAC — higher, 0.335
- CACTACGA — lower, -0.0719
- GAAGCTGA — lower, 0.0793
- AGATAACG — higher, 0.345
- GGATTAGA — lower, 0.137
- GGCAGGAC — lower, 0.0548
- GCCTCCCA — lower, -0.176
- GAACGACA — lower, -0.211
- CATAATGC — lower, 0.091
- CACTGTAC — lower, -0.238
- ACGTTGCT — lower, -0.184
- AACCCGCG — higher, 0.211
- CATAGCAC — lower, -0.0374
- AACATGTG — lower, -0.0547
- CGGTGACA — higher, 0.209
- CCCCGACG — higher, 0.379
- CTAAACAG — lower, -0.169
- CTAGACGC — lower, -0.263
- CTAAAGAG — lower, -0.201
- ATTACTTA — lower, 0.122
- CTTATTTC — lower, 0.122
- CGTTACCA — lower, -0.159
- CCGTACCA — higher, 0.235
- GTCATAAC — lower, 0.0512
- CATTTAAA — lower, 0.0482
- CCACCGGG — higher, 0.34
- CCGGTTTA — higher, 0.258
- AGGCCAGA — lower, -0.0351
- AAAAGTGC — lower, 0.00388
- GAATCATA — lower, -0.0958
- CATCACTA — lower, -0.201
- CCAACGAA — lower, -0.105
- CTGAACCC — lower, -0.114
- AAGTAACC — lower, -0.0991
- GCGACAAC — lower, 0.0655
- GAATTCTA — lower, -0.0266
- GTACTCCA — lower, -0.112
- GAAGTTCC — lower, 0.0636
- TAGACCGA — higher, 0.282
- CCTCATTC — lower, -0.138
- GCCTAATA — lower, 0.0381
- ATGCGTCA — lower, -0.125
- ATCGTATG — lower, -0.252
- CTATAAAA — lower, -0.0303
- CACGACAC — lower, -0.0689
- CCACAAGA — lower, -0.151
- CCGGCGGC — higher, 0.364
- ATAGCATG — lower, -0.19
- GGATAAAA — higher, 0.261
- AGACACAC — lower, -0.237
- CGAACCCC — higher, 0.24
- ATGTTGTC — lower, -0.101
- AGGTGCGC — lower, -0.0927
- CGGATTAA — higher, 0.365
- CGCGTATA — lower, 0.0454
- GTCCGAAC — higher, 0.426
- AGGGGCAC — lower, -0.243
- CACAAACG — lower, 0.0846
- CCGTGGAC — higher, 0.229
- AGTGGACA — lower, -0.0297
- CGGGATAA — higher, 0.263
- AGTTCAGG — lower, -0.191
- CACTAGAA — lower, -0.0422
- CGAATTTC — lower, 0.137
- CACCTCCG — higher, 0.311
- ATCTAGCG — lower, 0.00616
- CCTTTGGC — lower, -0.24
- AACAACTA — lower, -0.0145
- TCCAGCGA — lower, 0.0435
- CGAGGAGC — lower, 0.0181
- GCAACTAC — lower, -0.0604
- CACGGGCC — higher, 0.289
- GCTAGCCA — lower, -0.144
- CACGACTA — lower, -0.32
- CTCTATGC — lower, -0.197
- GTTACCGA — higher, 0.218
- TAGAACAA — lower, -0.273
- CGTTGGTC — lower, -0.0912
- CCTTTCGC — lower, 0.0401
- CACCGTAG — lower, 0.0891
- ACTCCTAT — lower, -0.141
- CGCCCGCG — higher, 0.263
- CGGGTACA — higher, 0.202
- ACGAGCAC — lower, -0.0683
- ACCTTCAA — lower, -0.293
- CCATCTCA — lower, -0.373
- CAAGTCGC — lower, -0.282
- AGAAATTG — lower, 0.00463
- CTACTCTC — lower, 0.0553
- CCATCGCA — lower, -0.199
- GGCCTATA — lower, 0.0312
- AATTTTAG — lower, -0.294
- AGTGCGGC — lower, 0.0776
- ATACGCTC — lower, 0.0673
- GCCAAGCA — lower, -0.159
- ATAGCCCC — lower, 0.134
- CCATCAAA — lower, -0.17
- CAGATCAA — lower, -0.138
- GTATCATA — lower, 0.0287
- ACGTCAGA — lower, -0.342
- CGGTGAAG — lower, 0.0684
- AAGCCTTC — lower, -0.0806
- CTGGACTC — lower, -0.113
- AGTGGGAT — lower, -0.0762
- CCTTCCCA — lower, -0.242
- AAGACCCA — lower, -0.277
- CTAATACA — lower, -0.0391
- AAATAACA — lower, -0.00712
- GCACACGC — lower, -0.208
- CCAGAAGC — lower, 0.0652
- TAATCTAA — lower, -0.0545
- GATACGGC — lower, 0.00586
- GAGTAATA — lower, 0.0813
- ACATTACT — lower, -0.176
- CCATTAAC — lower, -0.0448
- AGACTCTC — lower, -0.148
- TCGTGGAA — lower, -0.0409
- AAGAAGCC — higher, 0.198
- CGAGATTA — higher, 0.16
- CTTCACAC — lower, -0.217
- AGGTTCAA — lower, -0.0501
- ATAGTAGG — lower, -0.0329
- GGGCGGAC — higher, 0.279
- TACCTAAA — lower, -0.182
- CTGTGCGC — lower, 0.00713
- GTTGAAAC — lower, 0.007
- TGGCACAA — lower, -0.214
- ATAACTGA — lower, -0.0311
- CATCTGCG — lower, 0.0667
- AGTTGAAA — lower, -0.0683
- CGTTTTGA — lower, -0.114
- ATATGTGA — lower, -0.237
- CCCTCTCC — lower, -0.286
- CCGACAAG — higher, 0.282
- CCAGTGGA — lower, -0.164
- AGATGCGA — lower, 0.0962
- CTCCGGGA — higher, 0.392
- CCAAGAGA — lower, -0.24
- AAGCGAGA — higher, 0.173
- ACCTCGGA — higher, 0.384
- GCGGCACA — lower, 0.0226
- GACCCGGC — higher, 0.209
